Measurements from the supplement of paper PMC11876631.
Numbering of substitutions follows the chain as printed. In names and notes the source's numbering stands. ± gives the standard deviation of the averaged measurements. Laboratory Escherichia coli strains with one amino-acid change in an essential protein, pooled on minimal glucose agar with carbenicillin or gentamicin at twice the control MIC (plus kanamycin and chloramphenicol for the plasmids), 48 h. Fold change of barcode share against drug-free plates; higher = less susceptible. Active = above 20 in both replicates (the paper's putatively resistant). '<' = one read or none on drug, '>' = one read or none on a drug-free plate. Shares are relative, so most strains fall below 1 when a few take over. Listed are strains with at least 15 reads on both drug-free plates, and hits; most hits rest on fewer reference reads. Replicate rank correlation about 0.5. Edits are read from barcodes.

B1: cysE L120A (protein)
chain: MSCEELEIVWNNIKAEARTLADCEPMLASFYHATLLKHENLGSALSYMLANKLSSPIMPAIAIREVVEEAYAADPEMIASAACDIQAVRTRDPAVDKYSTPLLYLKGFHALQAYRIGHWAWNQGRRALAIFLQNQVSVTFQVDIHPAAKIGRGIMLDHATGIVVGETAVIENDVSILQSVTLGGTGKSGGDRHPKIREGVMIGAGAKILGNIEVGRGAKIGAGSVVLQPVPPHTTAAGVPARIVGKPDSDKPSMDMDQHFNGINHTFEYGDGI
B2: cysE L120W (protein)
chain: B1 chain with A120W
B3: cysD I20P (protein)
chain: MDQIRLTHLRQLEAESIHIPREVAAEFSNPVMLYSIGKDSSVMLHLARKAFYPGTLPFPLLHVDTGWKFREMYEFRDRTAKAYGCELLVHKNPEGVAMGINPFVHGSAKHTDIMKTEGLKQALNKYGFDAAFGGARRDEEKSRAKERIYSFRDRFHRWDPKNQRPELWHNYNGQINKGESIRVFPLSNWTEQDIWQYIWLENIDIVPLYLAAERPVLERDGMLMMIDDNRIDLQPGEVIKKRMVRFRTLGCWPLTGAVESNAQTLPEIIEEMLVSTTSERQGRVIDRDQAGSMELKKRQGYF
B4: cysD I269W (protein)
chain: B3 chain with P20I, I269W
B5: cysD V206P (protein)
chain: B3 chain with P20I, V206P
B6: cysD V23A (protein)
chain: B3 chain with P20I, V23A
B7: cysD V23D (protein)
chain: B3 chain with P20I, V23D
B8: cysD V206A (protein)
chain: B3 chain with P20I, V206A
B9: cysD V206D (protein)
chain: B3 chain with P20I, V206D
B10: cysD V206Q (protein)
chain: B3 chain with P20I, V206Q
B11: cysD V23Q (protein)
chain: B3 chain with P20I, V23Q
B12: cysD I268A (protein)
chain: B3 chain with P20I, I268A
B13: cysD V23P (protein)
chain: B3 chain with P20I, V23P
B14: cysD V206W (protein)
chain: B3 chain with P20I, V206W
B15: cysD I268D (protein)
chain: B3 chain with P20I, I268D

Target: Escherichia coli (laboratory strain)
Assay: barcode share on antibiotic plates over drug-free plates; higher = less susceptible
Experimental: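 A pool of E. coli strains, each edited to carry one amino-acid change in an essential protein, was grown for 48 h on minimal glucose agar with or without antibiotic; strain barcodes were sequenced; mean of two replicates.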

[1] = antibiotic: carbenicillin, 2× MIC (3.1 µg/mL)
[2] = antibiotic: gentamicin, 2× MIC (MIC 0.45 µg/mL)

Row | Protein | fold change of barcode share [1] | fold change of barcode share [2]
1 | B1 | 0.25 ± 0.055 | 0.0704 ± 0.095
2 | B2 | 0.18 ± 0.033 | < 0.00471
3 | B3 | > 44.7 [active] | 
4 | B4 | 1.95 ± 0.6 | 
5 | B5 | 0.631 ± 0.14 | 0.00981 ± 0.0022
6 | B6 | 2.01 ± 1.9 | 0.182 ± 0.23
7 | B7 | 1.26 ± 0.7 | 
8 | B8 | 0.689 ± 0.038 | 0.00739 ± 0.0045
9 | B9 | 0.774 ± 0.067 | 0.382 ± 0.47
10 | B10 | 0.743 ± 0.029 | 0.16 ± 0.17
11 | B11 | 0.623 ± 0.051 | 
12 | B12 | 4.21 ± 1.5 | 
13 | B13 | 1.09 ± 0.046 | 
14 | B14 | 2.47 ± 0.27 | 0.0315 ± 0.034
15 | B15 | > 45 [active] | 
